Drawing on article PMC10928201, this text covers binding for three molecules.

Sequences of proteins named here, by UniProt entry; tags and fusion partners are left off. Residues count along the entry.
UniProt P46379: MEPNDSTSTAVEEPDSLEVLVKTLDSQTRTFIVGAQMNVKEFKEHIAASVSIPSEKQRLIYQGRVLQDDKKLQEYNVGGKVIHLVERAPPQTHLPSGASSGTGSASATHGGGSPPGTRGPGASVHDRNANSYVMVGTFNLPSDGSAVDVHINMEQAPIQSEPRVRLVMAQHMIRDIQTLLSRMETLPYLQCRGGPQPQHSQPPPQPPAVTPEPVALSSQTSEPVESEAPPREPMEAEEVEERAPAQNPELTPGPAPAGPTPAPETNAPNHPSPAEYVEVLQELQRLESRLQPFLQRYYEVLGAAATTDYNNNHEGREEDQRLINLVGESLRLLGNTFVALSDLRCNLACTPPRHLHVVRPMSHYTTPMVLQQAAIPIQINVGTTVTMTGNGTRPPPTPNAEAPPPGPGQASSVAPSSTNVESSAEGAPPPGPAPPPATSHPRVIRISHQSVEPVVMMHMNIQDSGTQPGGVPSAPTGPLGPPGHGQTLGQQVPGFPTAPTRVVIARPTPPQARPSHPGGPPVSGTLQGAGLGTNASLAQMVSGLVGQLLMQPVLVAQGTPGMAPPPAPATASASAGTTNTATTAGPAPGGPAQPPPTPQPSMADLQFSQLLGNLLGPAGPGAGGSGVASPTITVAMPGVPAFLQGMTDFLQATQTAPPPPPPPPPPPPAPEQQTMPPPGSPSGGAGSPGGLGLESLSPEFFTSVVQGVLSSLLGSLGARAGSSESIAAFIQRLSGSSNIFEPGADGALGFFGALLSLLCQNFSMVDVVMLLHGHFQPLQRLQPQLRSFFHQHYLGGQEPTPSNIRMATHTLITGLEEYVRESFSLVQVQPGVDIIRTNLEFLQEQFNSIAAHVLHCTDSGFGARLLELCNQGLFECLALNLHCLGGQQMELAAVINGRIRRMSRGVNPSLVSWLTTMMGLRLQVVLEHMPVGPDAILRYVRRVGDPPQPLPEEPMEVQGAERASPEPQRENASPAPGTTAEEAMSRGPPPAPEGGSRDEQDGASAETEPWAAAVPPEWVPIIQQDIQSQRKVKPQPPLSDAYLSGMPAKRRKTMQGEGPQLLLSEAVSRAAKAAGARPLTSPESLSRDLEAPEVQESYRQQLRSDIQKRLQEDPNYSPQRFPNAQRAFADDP
UniProt Q7L5D6: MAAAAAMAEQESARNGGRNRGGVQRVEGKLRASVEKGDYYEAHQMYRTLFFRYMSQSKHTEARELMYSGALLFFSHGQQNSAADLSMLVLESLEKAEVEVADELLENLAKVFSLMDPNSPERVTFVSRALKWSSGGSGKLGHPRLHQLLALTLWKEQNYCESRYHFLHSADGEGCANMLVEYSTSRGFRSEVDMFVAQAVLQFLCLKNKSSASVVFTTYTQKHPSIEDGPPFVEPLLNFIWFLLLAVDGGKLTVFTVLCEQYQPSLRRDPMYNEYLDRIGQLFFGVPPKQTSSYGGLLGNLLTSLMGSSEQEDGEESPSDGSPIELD
UniProt P38646, residues 47-679: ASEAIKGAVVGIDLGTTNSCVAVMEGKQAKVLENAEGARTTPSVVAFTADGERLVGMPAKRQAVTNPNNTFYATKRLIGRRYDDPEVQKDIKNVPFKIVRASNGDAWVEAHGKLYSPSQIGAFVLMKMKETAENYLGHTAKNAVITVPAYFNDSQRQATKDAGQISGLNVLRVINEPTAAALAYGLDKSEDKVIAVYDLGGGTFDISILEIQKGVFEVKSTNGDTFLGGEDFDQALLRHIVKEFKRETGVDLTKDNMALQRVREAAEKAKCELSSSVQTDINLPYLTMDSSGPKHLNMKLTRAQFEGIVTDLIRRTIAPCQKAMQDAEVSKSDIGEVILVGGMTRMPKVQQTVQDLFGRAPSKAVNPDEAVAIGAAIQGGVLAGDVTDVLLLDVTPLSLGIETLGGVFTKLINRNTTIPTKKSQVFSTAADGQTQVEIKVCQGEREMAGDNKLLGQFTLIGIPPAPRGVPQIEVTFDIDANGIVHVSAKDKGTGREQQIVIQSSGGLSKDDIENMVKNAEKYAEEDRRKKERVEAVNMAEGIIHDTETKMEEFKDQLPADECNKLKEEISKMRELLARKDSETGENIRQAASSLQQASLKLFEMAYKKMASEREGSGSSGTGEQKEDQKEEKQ
UniProt P21796: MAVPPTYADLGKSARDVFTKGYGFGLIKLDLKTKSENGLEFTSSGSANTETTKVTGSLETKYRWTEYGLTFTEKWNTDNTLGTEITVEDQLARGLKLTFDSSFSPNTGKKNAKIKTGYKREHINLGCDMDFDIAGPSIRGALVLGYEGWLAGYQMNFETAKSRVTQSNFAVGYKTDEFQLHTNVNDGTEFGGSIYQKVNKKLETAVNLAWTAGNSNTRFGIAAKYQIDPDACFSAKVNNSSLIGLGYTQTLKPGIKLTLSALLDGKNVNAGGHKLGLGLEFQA

Results are given in words; binding and its absence hold for the method and conditions named. In cells and extracts the contact can be indirect. Some binding calls cover weakened binding; strength is not graded here. For some assays here: Where a sequence is shown, tags or fusion partners need not be part of it.

Assay in all cases: co-IP; anti-GET4 or anti-BAG6 antibody coupled to Dynabeads, incubated with ER-Mito reporter cell lysate (3-5 mg protein) for 24 h at 4 °C; lysis and wash buffer 20 mM Tris pH 7.5, 100 mM NaCl, 1% Triton, 10% glycerol; western blot; clones 1 and 2
Background: A western blot detects proteins with antibodies after separation by electrophoresis.

For experiment [1], the target named is BAG6 (human (endogenous in HeLa)) (UniProt P46379).
Experiment [2] has as its target GET4 (human (endogenous in HeLa)) (UniProt Q7L5D6).
For experiment [3], the target named is BAG6 (human (endogenous in HeLa)), P46379. The conditions noted are these: remark: other sources report otherwise.

In the case of “glucose-regulated protein 75 (GRP75) (from UniProt P38646 47-679)”, the binding result in experiment [1] is on record as “binds”; in experiment [2], “no binding”.
The corresponding values for “voltage-dependent anion-selective channel protein 1 (VDAC1) (from UniProt P21796 1-283)” are “no binding” and “no binding”.

B1: mitofusin 2 (MFN2), O95140 1-757 (protein)
chain: MSLLFSRCNSIVTVKKNKRHMAEVNASPLKHFVTAKKKINGIFEQLGAYIQESATFLEDTYRNAELDPVTTEEQVLDVKGYLSKVRGISEVLARRHMKVAFFGRTSNGKSTVINAMLWDKVLPSGIGHTTNCFLRVEGTDGHEAFLLTEGSEEKRSAKTVNQLAHALHQDKQLHAGSLVSVMWPNSKCPLLKDDLVLMDSPGIDVTTELDSWIDKFCLDADVFVLVANSESTLMQTEKHFFHKVSERLSRPNIFILNNRWDASASEPEYMEEVRRQHMERCTSFLVDELGVVDRSQAGDRIFFVSAKEVLNARIQKAQGMPEGGGALAEGFQVRMFEFQNFERRFEECISQSAVKTKFEQHTVRAKQIAEAVRLIMDSLHMAAREQQVYCEEMREERQDRLKFIDKQLELLAQDYKLRIKQITEEVERQVSTAMAEEIRRLSVLVDDYQMDFHPSPVVLKVYKNELHRHIEEGLGRNMSDRCSTAITNSLQTMQQDMIDGLKPLLPVSVRSQIDMLVPRQCFSLNYDLNCDKLCADFQEDIEFHFSLGWTMLVNRFLGPKNSRRALMGYNDQVQRPIPLTPANPSMPPLPQGSLTQEEFMVSMVTGLASLTSRTSMGILVVGGVVWKAVGWRLIALSFGLYGLLYVYERLTWTTKAKERAFKRQFVEHASEKLQLVISYTGSNCSHQVQQELSGTFAHLCQQVDVTRENLEQEIAAMNKKIEVLDSLQSKAKLLRNKAGWLDSELNMFTHQYLQPSR
With B1, the binding entry in experiment [3] is listed as “no binding”.
